# Measurements published in the supplement of paper PMC3334620.
# The full ranking holds about 33,000 sequences; the median of “E-score (-0.5 to 0.5)” is about -0.011, and the highest 2% start at about 0.28. Some of the results follow.
# Biological target: T1, Gcr1 (UniProt P07261)
# T1 sequence: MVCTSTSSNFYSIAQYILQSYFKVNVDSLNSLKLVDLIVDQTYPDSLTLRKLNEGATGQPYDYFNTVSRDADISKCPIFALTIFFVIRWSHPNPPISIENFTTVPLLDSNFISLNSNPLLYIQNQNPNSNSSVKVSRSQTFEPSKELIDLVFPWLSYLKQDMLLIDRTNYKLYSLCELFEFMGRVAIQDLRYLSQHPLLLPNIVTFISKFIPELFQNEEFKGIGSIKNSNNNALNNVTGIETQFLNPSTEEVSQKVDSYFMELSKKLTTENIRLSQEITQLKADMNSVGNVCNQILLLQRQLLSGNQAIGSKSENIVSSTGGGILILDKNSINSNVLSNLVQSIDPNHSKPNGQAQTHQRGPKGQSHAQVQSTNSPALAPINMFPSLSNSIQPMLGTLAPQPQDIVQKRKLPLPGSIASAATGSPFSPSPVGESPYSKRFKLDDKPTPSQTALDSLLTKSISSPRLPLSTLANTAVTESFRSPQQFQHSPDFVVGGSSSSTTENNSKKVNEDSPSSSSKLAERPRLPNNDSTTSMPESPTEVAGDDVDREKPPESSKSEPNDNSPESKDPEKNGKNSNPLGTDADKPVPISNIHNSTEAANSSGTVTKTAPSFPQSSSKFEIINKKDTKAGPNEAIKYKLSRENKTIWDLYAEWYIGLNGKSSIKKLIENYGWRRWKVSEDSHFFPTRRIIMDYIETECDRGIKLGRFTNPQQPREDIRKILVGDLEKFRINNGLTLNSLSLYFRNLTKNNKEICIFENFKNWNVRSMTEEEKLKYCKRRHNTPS
# Assay: PBM E-score (8-mer binding enrichment) (E-score (-0.5 to 0.5)); higher = stronger / more preferred TF binding; most listed sequences are background and not binding sites
# Conditions: protein concentration: 100 nM; construct: GST-full length
# Method in brief: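 E-scores (a modified Wilcoxon-Mann-Whitney statistic) were assigned by the Universal PBM Analysis Suite to every ungapped eight-base word pooled with its reverse complement. The input came from universal all-10-mer Agilent arrays made double-stranded by primer extension and probed with GST-tagged yeast transcription factors at about 100-200 nM. Fluorescent anti-GST detected bound protein, and masliner normalised the scans.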
row,Sequence,PBM E-score
1,TCTGGCCA,-0.183
2,ATGGGGCG,0.171
3,ACCGTAAA,-0.0552
4,ACTGGCAA,-0.0657
5,AAATGTGG,0.186
6,GCGCAAAA,-0.039
7,AAACGTAT,0.0461
8,ACTTGCAC,-0.126
9,AGACCACC,-0.0878
10,AGGCGGCC,0.169
11,AGGTCGAC,-0.148
12,GAGCGCGC,0.0105
13,GGACCCCC,-0.0112
14,AGGGAGTA,-0.0396
15,CACGTTGC,0.0658
16,AAGTTCAT,0.101
17,CCTTCAAG,-0.041
18,AGCACGAT,-0.106
19,AAGGGTAG,-0.138
20,GCTAGTTA,-0.176
21,CATCCAAG,-0.0862
22,ATGTATGG,0.0984
23,CCCCTGAA,0.0139
24,ATCTATTA,0.0929
25,AGACCCCC,-0.079

row,Sequence,PBM E-score
1,ACGCACTA,-0.207
2,CTTTGCCC,-0.259
3,AGCGCGGA,-0.126
4,ATACGGGC,0.152
5,CAGTCTGG,-0.0985
6,TGAACAAA,0.0314
7,ATTCTATG,0.132
8,AGGATATG,-0.229
9,ATACCGAA,0.146
10,ACGAGCCC,-0.207
11,GCAGAATA,0.0609
12,CAACTCAC,-0.078
13,AGATTCCA,0.426
14,AAGACACG,0.117
15,AGTCCGTC,-0.179
16,AGTACTAA,0.0733
17,AAGTTCCT,0.163
18,CAGGTTGG,-0.0265
19,ACAATGCA,-0.0197
20,CCGCACGG,-0.00276
21,CCGCCTTA,0.00216
22,CGAAAGCC,-0.141
23,CGTGGTTA,-0.119
24,ATGTTCAA,0.0396
25,GAGGTATA,-0.0396

row,Sequence,PBM E-score
1,TATATGAA,0.0517
2,AGTATCTG,0.113
3,ACTGTTGA,-0.0529
4,ATAGTAGA,0.191
5,ACGATGCA,0.0214
6,ATCATCGC,-0.165
7,CCTTTGTC,0.0286
8,CTACAGAA,0.0747
9,ATGCCCTC,-0.0918
10,GAGCTCGA,-0.0739
11,CTCCGAAG,0.126
12,AACGGCAC,0.0232
13,CAGAAATA,0.156
14,AGACGACG,-0.0698
15,ATCCAGTA,0.277
16,GCATGCCC,-0.223
17,GGGTTGAC,-0.00188
18,AAAAGGAG,-0.00968
19,CCCTCACG,-0.132
20,AATCGTGG,-0.0587
21,AATTTTTG,0.1
22,TCCGGGAA,0.207
23,CAGAGATC,-0.135
24,TAGGCACA,-0.179
25,GTGATTTA,0.178

row,Sequence,PBM E-score
1,CCCTTGTA,-0.104
2,GCTCGCAC,0.0418
3,AAGTCAAA,0.0937
4,AAGCACGG,-0.152
5,TGAGGACA,-0.117
6,CCGCTTAG,-0.108
7,CCCACAGG,-0.0129
8,AAACATTA,0.0249
9,CCTACAGC,-0.216
10,TCTAACCA,-0.153
11,CGGCCGGA,-0.181
12,AGGGAACA,-0.173
13,AACTAAAG,0.0707
14,ACTGAGAT,-0.0998
15,CTTGTCGC,0.122
16,TATCGAAA,0.0143
17,TACGCATA,-0.0827
18,ACGACGAT,0.0839
19,CGAGCACC,0.243
20,CAGGATTA,0.125
21,GTATCAAC,0.0405
22,ATCAAGGG,-0.15
23,CTTGGGCC,-0.117
24,AAATATGG,0.106
25,CTCTCGCA,0.0115

row,Sequence,PBM E-score
1,CCCAAGAC,-0.166
2,AACTGAAA,0.135
3,AGACCTTC,-0.198
4,GCCCATCA,0.00662
5,CCTGACTC,0.00419
6,CATCTTCA,0.062
7,CAGAGATG,0.0113
8,CCAGCGCG,-0.042
9,CATCGGTC,-0.231
10,GCAAGAAC,-0.137
11,TCAATTGA,0.00453
12,GCGATCCC,0.0838
13,GCGCCCGC,0.315
14,AGCACCCT,0.277
15,GTTATGTA,-0.0225
16,ACTCAGGC,0.121
17,CCTGTCAA,0.177
18,CTGAATGC,-0.0265
19,AGCGCCAG,-0.0354
20,GGCATGGA,-0.223
21,ATCCATTG,0.0773
22,GCTCGGGA,-0.0298
23,CGGGAGAC,0.036
24,AACATATC,-0.0354
25,ATCCCGTG,0.0951

row,Sequence,PBM E-score
1,TCCAGGGA,-0.0395
2,ACAGGGCG,0.213
3,CACACTCC,-0.0523
4,AAGGGCGA,-0.255
5,AGGAGCTG,-0.0949
6,AGTGAAAG,0.148
7,ATTCTCGC,-0.159
8,CAAGGTCA,-0.24
9,CCATGCCA,-0.00115
10,AAGTAATC,-0.0951
11,GATACGTA,0.0643
12,ATCTTTCC,-0.0641
13,ATGTGTGA,-0.0163
14,CCCGTTTC,-0.00282
15,AGAAAGAG,0.0424
16,ATCTTGGC,0.0645
17,GAACAGTC,-0.311
18,ATGAACAT,-0.163
19,CAAACTAG,0.0123
20,CAGGATAG,0.189
21,AGGTGCCC,0.395
22,CATCGCCC,-0.251
23,CTAAACTA,0.038
24,CGGTTACA,-0.0328
25,CGTGATAG,-0.0912

row,Sequence,PBM E-score
1,CATTACCC,0.0419
2,CTCGGTCC,-0.158
3,CCAGACAC,-0.021
4,TCGAATAA,0.0159
5,CGCCCAAG,0.00152
6,CACTCTCG,-0.0677
7,CATTTTCG,0.0498
8,AAGGGCGT,-0.21
9,AGGTAACG,0.0176
10,ATTTTAAG,0.0417
11,ACCGAGAT,0.0535
12,TGATTAAA,0.155
13,ACAGGCTA,-0.0301
14,GCTAGACA,-0.182
15,CCTGCGAG,-0.244
16,GGATAGAA,0.0454
17,AAGATACC,0.0954
18,AACCGAAG,-0.105
19,AGACGTAA,-0.194
20,CTCCTGAA,0.085
21,CGGCTGTA,-0.232
22,GCCCTGCA,-0.131
